Reference: a collection of fitness landscapes (doi:10.1016/j.celrep.2020.107928)
In all, about 81,000 sequences were measured (“one-hybrid fitness for binding parS DNA”: median about -0.17, highest 2% from about 0.51 on). Some of the results follow.

B1: Caulobacter ParB omega fusion; a variant is named by its letters at X, in order, B8GW30 (parent)
chain: MESVVVGEPGMSEGRRGLGRGLSALLGEVDAAPAQAPGEQLGGSREAPIEILQRNPDQPRRTFREEDLEDLSNSIREKGVLQPILVRPSPDTAGEYQIVAGERAWRAAQRAGLKTVPIMVRELDDLAVLEIGIIENVQRADLNVLEEALSYKVLMEKFERTQENIAQTIGKSXSHVANXMRLLXLPDEVQSYLVSGELTAXHARAIAAAADPVALAKQIIEGGLSVRETEALARKAPNLSAGKSKGGRPPRVKDTDTQALESDLSSVLGLDVSIDHRGSTGTLTITYATLEQLDDLCNRLTRGI

Variants of: B1
Experiment: one-hybrid fitness for binding parS DNA (scaled: cognate 1, non-cognate 0); higher = stronger binding
Details: with parS DNA site
How it was run: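 Selection: bacterial one-hybrid in E. coli USO, HIS3 reporter with the site 19 bp from the promoter, 48 hours at 37°C on M9-minus-histidine plus 0.1 mM IPTG and 5 mM 3-AT. Libraries were Caulobacter ParB with four randomised specificity codons, sequenced on Illumina before and after selection. Fitness is the rescaled log change in variant-to-wild-type read ratio, anchored to the cognate and non-cognate sites.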

one-hybrid fitness for binding parS DNA, 0.851:
RAVC

one-hybrid fitness for binding parS DNA, 0.457:
RGMT

one-hybrid fitness for binding parS DNA, 0.355:
RTIN

one-hybrid fitness for binding parS DNA, 0.938:
RLAT

one-hybrid fitness for binding parS DNA, 0.208:
RCGD

one-hybrid fitness for binding parS DNA, 0.241:
RLGW

one-hybrid fitness for binding parS DNA, 1.02:
RCWG
RQLS

one-hybrid fitness for binding parS DNA, 0.75:
RTET

one-hybrid fitness for binding parS DNA, 0.256:
RCFF
RICQ

one-hybrid fitness for binding parS DNA, 0.297:
RKYN

one-hybrid fitness for binding parS DNA, ≤ 0.2:
TSTD
YIAG
VPAF
PRAE
VENP
TAAE
WNLG
EQLV
QYQF
DWWR
LADM
RDYL
PYDK
SHPD
QNNC
QDPG
QPQI
QNCV
TLHS
QASG
MFSL
HLKH
SIER
QGAK
YSPW
VLVI
SNPS
PMPE
DRCW
IWDM
QRYA
GNLA
GILC
SRIA
AMLA
KQLV
DADR
NHRR
HLNR
KWRT
LMRG
QMKY
VANR
ANYY
AQTK
CYCC
WIGP
WLET
ASIC
QKQC
QIMR
PNKN
TFHT
QIWC
REPL
YHSL
KTMT
FCGS
SPDT
QCGF
APNI
LKHS
LNPG
VLYE
SLYS
APPF
TCPG
PGKW
SGFR
HTVW
VKLR
NPPF
ANGR
SHGN
LQPD
LCTL
TQSD
WSNM
VIWS
AYIK
LTVS
KDRT
CSDF
RCTE
TSLF
YDHY
ACMT
QGGN
NHLM
FLPR
ACNL
GTMN
KKLS
KTYP
PGNL
FKTV
CPQR
SRRC
VNSR
QYKG
QMWL
TRVE
LTNC
KVRQ
NGSG
TGHG
MWKT
YADV
SCFI
RLIL
NLRW
RVIQ
MIIG
LGTR
IQRG
FPSN
ETTC
MMSG
RPDC
YLYC
RWKW
SQVG
HMWW
NSAS
QPIG
TWRW
ALQA
VDKG
RCEV
VRAG
PHIS
PACM
MQVG
MCTY
CFRG
RAMQ
SELT
CHSR
QSLL
IPLG
ACWG
PCTI
RGLN
FTIT
CSRS
SDSE
SQMV
VWTG
EVES
DSAT
EGGS
WMYS
QHPM
SIFS
ALHV
IYCR
MLPG
WWTT
WQTR
GVCC
FWLG
SYNL
DVSG
VQGC
AQSP
YMTE
CQAK
MTSC
PRSC
ISRS
DSPK
RICE
LVPW
PVSC
QKQS
AAHC
LRGF
PKGT
IYDR
AFVV
THNS
PNVY
NTCD
ALDH
WREE
RSHH
AQAE
MCDR
DSVY
HARQ
MVKG
QWSF
FAVC
DSKM
PGFP
RHRV
VTTG
ACPM
SHKY
SRLC
NHAL
CHSW
GMMG
VDWG
TGKG
RVWI
ILPS
KARQ
WDKR
VRCA
QSFQ
DRRL
DNPI
LPIR
RLAE
MSRV
GTLV
NPHD
VRLH
LGHS
DPAW
STQV
PHDF
RMFK
NARF
WEDR
LLKQ
GQPI
YYKV
NVDT
PGEY
PEDV
QRSR
QQKS
GDGC
TDDL
FYIS
FPQT
PHNC
VLET
HWSY
QGTN
QWDG
NPKV
GFTA
RFAQ
DKPG
QMNK
IPTA
FLLV
CANR
YRLY
EELC
AMKR
PTMT
LSPN
SYPK
QCIF
SFTC
TREC
HVVA
HCAV
SPKW
RGWD
IEAS
PPAW
KPQT
HTDF
VEDL
ICMF
WNMR
GVRM
MGTC
STTH
HWDR
PLGI
KGGR
NPLD
CHMW
AHKS
LRQG
LFDG
PNFV
HYHA
LHRS
MRPI
KQAC
RGEM
HGGC
CGRT

one-hybrid fitness for binding parS DNA, 0.824:
RFMC

one-hybrid fitness for binding parS DNA, 0.272:
RTGW

one-hybrid fitness for binding parS DNA, 0.921:
RMQT

one-hybrid fitness for binding parS DNA, 0.554:
RGES
